# In the supplement of paper PMC8728848:
# The other results are listed elsewhere or left out.
# Columns and labels:
# Assay in all cases: glycan array binding signal (z-score within array); higher = stronger binding
# Details in all cases: glycan notation: IUPAC condensed, linker removed
# [1] = target: Neu5Ac(a2-6)Gal
# Method in brief: (§1)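 The Consortium for Functional Glycomics database supplied 3228 glycan arrays, of which those lacking an available protein sequence were dropped. The binding signal, a within-array Z-score, was averaged across arrays of the same protein sequence and across linkers. Negative scores can be read as non-binding.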
# [2] = target: Neu5Ac(a2-6)Gal(b1-4)Glc
# Method in brief: as §1
# [3] = target: Neu5Ac(a2-6)Gal(b1-4)GlcNAc
# Method in brief: as §1
# [4] = target: Neu5Ac(a2-6)Gal(b1-4)GlcNAc(b1-2)Man(a1-3)Man(b1-4)GlcNAc(b1-4)GlcNAc
# Method in brief: as §1
# [5] = target: Neu5Ac(a2-6)Gal(b1-4)GlcNAc(b1-2)Man(a1-3)[Gal(b1-4)GlcNAc(b1-2)Man(a1-6)]Man(b1-4)GlcNAc(b1-4)GlcNAc
# Method in brief: as §1
# [6] = target: Neu5Ac(a2-6)Gal(b1-4)GlcNAc(b1-2)Man(a1-3)[GlcNAc(b1-2)Man(a1-6)]Man(b1-4)GlcNAc(b1-4)GlcNAc
# Method in brief: as §1
# [7] = target: Neu5Ac(a2-6)Gal(b1-4)GlcNAc(b1-2)Man(a1-3)[GlcNAc(b1-2)Man(b1-4)GlcNAc(b1-2)Man(a1-6)]Man(b1-4)GlcNAc(b1-4)GlcNAc
# Method in brief: as §1
# [8] = target: Neu5Ac(a2-6)Gal(b1-4)GlcNAc(b1-2)Man(a1-3)[Man(a1-6)]Man(b1-4)GlcNAc(b1-4)GlcNAc
# Method in brief: as §1
# [9] = target: Neu5Ac(a2-6)Gal(b1-4)GlcNAc(b1-2)Man(a1-3)[Neu5Ac(a2-6)Gal(b1-4)GlcNAc(b1-2)Man(a1-6)]Man(b1-4)GlcNAc(b1-4)GlcNAc
# Method in brief: as §1
# [10] = target: Neu5Ac(a2-6)Gal(b1-4)GlcNAc(b1-2)Man(a1-6)Man(b1-4)GlcNAc(b1-4)GlcNAc
# Method in brief: as §1
# [11] = target: Neu5Ac(a2-6)Gal(b1-4)GlcNAc(b1-2)Man(a1-6)[Gal(b1-4)GlcNAc(b1-2)Man(a1-3)]Man(b1-4)GlcNAc(b1-4)GlcNAc
# Method in brief: as §1
# [12] = target: Neu5Ac(a2-6)Gal(b1-4)GlcNAc(b1-2)Man(a1-6)[GlcNAc(b1-2)Man(a1-3)]Man(b1-4)GlcNAc(b1-4)GlcNAc
# Method in brief: as §1
# [13] = target: Neu5Ac(a2-6)Gal(b1-4)GlcNAc(b1-2)Man(a1-6)[Man(a1-3)]Man(b1-4)GlcNAc(b1-4)GlcNAc
# Method in brief: as §1
# [14] = target: Neu5Ac(a2-6)Gal(b1-4)GlcNAc(b1-3)Gal(b1-3)GlcNAc
# Method in brief: as §1
# [15] = target: Neu5Ac(a2-6)Gal(b1-4)GlcNAc(b1-3)Gal(b1-4)GlcNAc
# Method in brief: as §1
# [16] = target: Neu5Ac(a2-6)Gal(b1-4)GlcNAc(b1-3)Gal(b1-4)GlcNAc(b1-3)Gal(b1-4)GlcNAc
# Method in brief: as §1
# [17] = target: Neu5Ac(a2-6)Gal(b1-4)GlcNAc(b1-3)Gal(b1-4)[Fuc(a1-3)]GlcNAc(b1-3)Gal(b1-4)[Fuc(a1-3)]GlcNAc
# Method in brief: as §1
# [18] = target: Neu5Ac(a2-6)Gal(b1-4)GlcNAc(b1-3)GalNAc
# Method in brief: as §1
# [19] = target: Neu5Ac(a2-6)Gal(b1-4)GlcNAc6S
# Method in brief: as §1
# [20] = target: Neu5Ac(a2-6)GalNAc
# Method in brief: as §1
# [21] = target: Neu5Ac(a2-6)GalNAc(b1-4)GlcNAc
# Method in brief: as §1
# [22] = target: Neu5Ac(a2-6)GlcNAc(b1-4)GlcNAc
# Method in brief: as §1
# [23] = target: Neu5Ac(a2-6)GlcNAc(b1-4)GlcNAc(b1-4)GlcNAc
# Method in brief: as §1
# [24] = target: Neu5Ac(a2-8)Neu5Ac
# Method in brief: as §1
# [25] = target: Neu5Ac(a2-8)Neu5Ac(a2-3)Gal(b1-4)Glc
# Method in brief: as §1
# [26] = target: Neu5Ac(a2-8)Neu5Ac(a2-3)[GalNAc(b1-4)]Gal(b1-4)Glc
# Method in brief: as §1
# [27] = target: Neu5Ac(a2-8)Neu5Ac(a2-8)Neu5Ac
# Method in brief: as §1
# [28] = target: Neu5Ac(a2-8)Neu5Ac(a2-8)Neu5Ac(a2-3)Gal(b1-4)Glc
# Method in brief: as §1
# [29] = target: Neu5Ac(a2-8)Neu5Ac(a2-8)Neu5Ac(a2-3)[GalNAc(b1-4)]Gal(b1-4)Glc
# Method in brief: as §1
# [30] = target: Neu5Ac(a2-8)Neu5Ac(a2-8)Neu5Ac(a2-8)Neu5Ac(a2-3)[GalNAc(b1-4)]Gal(b1-4)Glc
# Method in brief: as §1
# [31] = target: Neu5Ac(b2-6)Gal(b1-4)GlcNAc
# Method in brief: as §1
# [32] = target: Neu5Ac(b2-6)GalNAc
# Method in brief: as §1
# [33] = target: Neu5Ac9Ac(a2-3)Gal(b1-3)GlcNAc
# Method in brief: as §1
# [34] = target: Neu5Ac9Ac(a2-3)Gal(b1-4)GlcNAc
# Method in brief: as §1
# [35] = target: Neu5Ac9Ac(a2-6)Gal(b1-4)GlcNAc
# Method in brief: as §1
# [36] = target: Neu5Gc(a2-3)Gal(b1-3)GlcNAc
# Method in brief: as §1
# [37] = target: Neu5Gc(a2-3)Gal(b1-3)[Fuc(a1-4)]GlcNAc
# Method in brief: as §1
# [38] = target: Neu5Gc(a2-3)Gal(b1-4)Glc
# Method in brief: as §1
# [39] = target: Neu5Gc(a2-3)Gal(b1-4)GlcNAc
# Method in brief: as §1
# [40] = target: Neu5Gc(a2-3)Gal(b1-4)[Fuc(a1-3)]GlcNAc
# Method in brief: as §1
# [41] = target: Neu5Gc(a2-6)Gal(b1-4)GlcNAc
# Method in brief: as §1
# [42] = target: Neu5Gc(a2-6)GalNAc
# Method in brief: as §1
# [43] = target: Neu5Gc(b2-6)Gal(b1-4)GlcNAc
# Method in brief: as §1
binder,measurement,setting,value
"Galatrox (Botrops atrox), P0DM53 (protein) NNCPQDWLPMNGLCYKIFDELKAWKDAEMFCRKYKPGCHLASIILYGESPEWAEGHSEVWLGLWDKKKDFSWEWTDR",glycan array binding signal (z-score),[1],-0.359
same,glycan array binding signal (z-score),[2],-0.362
same,glycan array binding signal (z-score),[3],-0.353
same,glycan array binding signal (z-score),[4],0.146
same,glycan array binding signal (z-score),[5],0.4
same,glycan array binding signal (z-score),[6],-0.355
same,glycan array binding signal (z-score),[7],-0.348
same,glycan array binding signal (z-score),[8],-0.301
same,glycan array binding signal (z-score),[9],-0.076
same,glycan array binding signal (z-score),[10],-0.368
same,glycan array binding signal (z-score),[11],0.771
same,glycan array binding signal (z-score),[12],-0.303
same,glycan array binding signal (z-score),[13],-0.323
same,glycan array binding signal (z-score),[14],-0.288
same,glycan array binding signal (z-score),[15],-0.357
same,glycan array binding signal (z-score),[16],-0.297
same,glycan array binding signal (z-score),[17],0.033
same,glycan array binding signal (z-score),[18],-0.275
same,glycan array binding signal (z-score),[19],-0.244
same,glycan array binding signal (z-score),[20],-0.362
same,glycan array binding signal (z-score),[21],-0.376
same,glycan array binding signal (z-score),[22],-0.269
same,glycan array binding signal (z-score),[23],-0.363
same,glycan array binding signal (z-score),[24],-0.357
same,glycan array binding signal (z-score),[25],-0.365
same,glycan array binding signal (z-score),[26],-0.197
same,glycan array binding signal (z-score),[27],-0.36
same,glycan array binding signal (z-score),[28],-0.366
same,glycan array binding signal (z-score),[29],-0.343
same,glycan array binding signal (z-score),[30],-0.313
same,glycan array binding signal (z-score),[31],-0.369
same,glycan array binding signal (z-score),[32],-0.367
same,glycan array binding signal (z-score),[33],-0.374
same,glycan array binding signal (z-score),[34],-0.371
same,glycan array binding signal (z-score),[35],-0.323
same,glycan array binding signal (z-score),[36],-0.368
same,glycan array binding signal (z-score),[37],-0.369
same,glycan array binding signal (z-score),[38],-0.369
same,glycan array binding signal (z-score),[39],-0.362
same,glycan array binding signal (z-score),[40],-0.36
same,glycan array binding signal (z-score),[41],-0.367
same,glycan array binding signal (z-score),[42],-0.372
same,glycan array binding signal (z-score),[43],-0.341
